{
  "source": "PubChem BioAssay AID2675",
  "about": "(National Center for Advancing Translational Sciences (NCATS), 2010)",
  "note": "Among all 280,000 compounds or so, about 100 (0.036%) were called active. Inconclusive means that the source gave no clear call. Such entries were picked first, then a sample of the others. The call rests on the fitted dose curve; in most records, active means well fitted inhibition curve with a large enough effect in the signal ratio, with a control signal flat (not every such curve was filed as active); inconclusive means small, poorly fitted or top-dose-only effect, or effect the other way, or a change in a side signal; inactive means no such curve, though single readings can be large or run the other way; the % refers to the signal ratio. A potency beside an inconclusive call is a rough fit, not a confirmed value. A note “side channel” means that the fit belongs to a control or component signal, not to the main read-out. On the % scale 0 is the no-effect control and ±100 the full control effect; potency means the concentration at half of the fitted maximal effect; tags describe the fitted curve by direction and shape or compound fluorescence and quenching.",
  "data": [
    {"biological_target": "Muscleblind-like protein 1 (Homo sapiens) (UniProt Q9NR56)", "sequence (Q9NR56 whole entry, looked up)": "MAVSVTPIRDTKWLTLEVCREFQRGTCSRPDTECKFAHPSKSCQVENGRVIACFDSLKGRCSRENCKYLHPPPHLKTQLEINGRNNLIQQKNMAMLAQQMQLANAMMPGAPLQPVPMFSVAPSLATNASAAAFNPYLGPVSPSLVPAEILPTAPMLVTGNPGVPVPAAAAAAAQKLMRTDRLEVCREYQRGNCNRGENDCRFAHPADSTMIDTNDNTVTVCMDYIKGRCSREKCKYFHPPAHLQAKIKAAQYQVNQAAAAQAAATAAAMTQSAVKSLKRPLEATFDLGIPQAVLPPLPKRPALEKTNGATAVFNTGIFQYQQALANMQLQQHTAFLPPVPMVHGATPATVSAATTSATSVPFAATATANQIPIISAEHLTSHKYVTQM", "assay": "qHTS Assay for Inhibitors of MBNL1-poly(CUG) RNA binding", "settings": "TR-FRET MBNL1-His/biotin-(CUG)12 binding, 665/545 ratio; activity change, negative = inhibition: at 57.5 µM (top of the series)", "outline": "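Ratiometric TR-FRET (665 over 545 nm, excitation 340 nm) tracks disruption of MBNL1-His/biotin-(CUG)12 complex after 60 min at room temperature, with compounds at 92 nM to 58 uM final.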", "values": [
      {"smiles": "COc1ccc(-c2c(C)n([O-])c3c([n+]2=O)CCCC3)cc1", "Potency": "inconclusive: 31.6 µM [quencher, side channel, single point]"},
      {"smiles": "Cc1cccc(C)c1Nc1nnc(SCC(=O)NC2CCS(=O)(=O)C2)s1", "note": "(stereo unspecified)", "Potency": "inconclusive: 1.12 µM [quencher, side channel, single point]"},
      {"smiles": "CCOC(=O)COc1c(-c2ccc(OC)cc2)oc2ccccc2c1=O", "activity change, negative = inhibition": "inactive: 38.7%"},
      {"smiles": "CC(C)[C@@H](CO)NC(=O)c1ccc2c3n(nc2c1)-c1ccccc1CO3", "Potency": "inconclusive: 17.8 µM [quencher, side channel, partial curve]"},
      {"smiles": "COc1ccc2c(c1)C1C=CCC1C(c1cc3c(cc1Br)OCO3)N2", "note": "(stereo unspecified)", "activity change, negative = inhibition": "inactive: -4.25%"},
      {"smiles": "CCn1cc([N+](=O)[O-])c(C(=O)Nc2cc(C)on2)n1", "Potency": "inconclusive: 25.1 µM [quencher, side channel, partial curve]"},
      {"smiles": "Cn1c(=O)c2c(nc(SCCN3CCOCC3)n2C)n(C)c1=O", "activity change, negative = inhibition": "inactive: -11%"},
      {"smiles": "COc1ccc2ccc3c(c2c1)N=CC1(O3)N(C)c2ccccc2C1(C)C", "note": "(stereo unspecified)", "Potency": "inconclusive: 39.8 µM [quencher, side channel, single point]"},
      {"smiles": "CC1CCCCN1S(=O)(=O)c1ccc([N+](=O)[O-])cc1", "note": "(stereo unspecified)", "Potency": "inconclusive: 10 µM [quencher, side channel, partial curve]"},
      {"smiles": "CCCc1ccc(C2C3=C(CC(C)(C)CC3=O)NC3=C2C(=O)c2ccccc23)cc1", "note": "(stereo unspecified)", "Potency": "inconclusive: 25.1 µM [quencher, side channel, single point]"},
      {"smiles": "COc1cccc(CC(NC(C)=O)C(=O)NC2CCN(c3nnnn3-c3ccccc3)CC2)c1", "note": "(stereo unspecified)", "Potency": "inconclusive: 12.6 µM [quencher, side channel, partial curve]"},
      {"smiles": "C=CCn1c(-c2ccc(OC)c(OC)c2)cs/c1=N\\c1ccccn1", "Potency": "inconclusive: 8.91 µM [quencher, side channel, single point]"},
      {"smiles": "NC(=O)CC(NC(=O)c1ccccc1)c1ccc(NCc2ccccn2)c([N+](=O)[O-])c1", "note": "(stereo unspecified)", "Potency": "inconclusive: 15.8 µM [quencher, side channel, partial curve]"},
      {"smiles": "O=C(NCC1CCCCC1)c1cc([N+](=O)[O-])ccc1Cl", "Potency": "inconclusive: 12.6 µM [quencher, side channel, partial curve]"},
      {"smiles": "COc1ccccc1NC(=O)CCC(=O)OCc1cccc([N+](=O)[O-])c1", "Potency": "inconclusive: 31.6 µM [quencher, single point]"},
      {"smiles": "COc1ccc(-c2cc3ccccc3n2CC(O)Cn2nc(C)cc2C)cc1", "note": "(stereo unspecified)", "activity change, negative = inhibition": "inactive: -3.43%"},
      {"smiles": "CC(C)OC(=O)CC(=O)c1sc2nc3c(cc2c1N)CN(C)CC3", "Potency": "inconclusive: 7.94 µM [quencher, side channel, partial curve]"},
      {"smiles": "CCOc1ccc(C(C)=O)cc1CSC(=N)N", "Potency": "inconclusive: 15.8 µM [inhibitor, single point]"},
      {"smiles": "CCC1(C)NC(=O)N(/N=C/c2cc(OC)c(O)c(OC)c2)C1=O", "note": "(stereo unspecified)", "Potency": "inconclusive: 39.8 µM [quencher, side channel, single point]"},
      {"smiles": "O=C(CNC(=O)c1ccc2ccccc2c1)OCC(=O)N1CCN(S(=O)(=O)c2ccc3ccccc3c2)CC1", "Potency": "inconclusive: 0.631 µM [quencher, side channel, partial curve]"},
      {"smiles": "COC(=O)Nc1nn(-c2ccc(C)cc2)c(=O)c(C#N)c1C", "Potency": "inconclusive: 3.98 µM [quencher, side channel, full curve]"},
      {"smiles": "O=C(Cn1ncc(Cl)c(Cl)c1=O)N1CCOCC1", "activity change, negative = inhibition": "inactive: 18.6%"},
      {"smiles": "Cc1ccc(N(CC(=O)O)S(=O)(=O)c2cccc3nonc23)cc1", "Potency": "inconclusive: 11.2 µM [quencher, side channel, partial curve]"},
      {"smiles": "CCC(C)NS(=O)(=O)c1ccc(NS(=O)(=O)c2ccc(F)cc2)cc1", "note": "(stereo unspecified)", "activity change, negative = inhibition": "inactive: -1.43%"},
      {"smiles": "CC1=NN(/C(=N\\c2nnc(C)s2)Nc2ccccc2)[C@H](c2cccc3ccccc23)S1", "Potency": "inconclusive: 39.8 µM [inhibitor, single point]"},
      {"smiles": "O=C(NCCCSc1ccccc1)c1cc(Cl)ccc1O", "Potency": "inconclusive: 3.16 µM [quencher, side channel, single point]"},
      {"smiles": "CCCOc1ccc(/C=N/O)cc1", "Potency": "inconclusive: 15.8 µM [quencher, side channel, partial curve]"},
      {"smiles": "Nc1[nH]c(=O)[nH]c(=O)c1N=Nc1cccc(Cl)c1", "Potency": "inconclusive: 3.55 µM [quencher, side channel, partial curve]"},
      {"smiles": "COc1ccc2nc(SCC(=O)Nc3cc(C)on3)c(C#N)cc2c1", "activity change, negative = inhibition": "inactive: 12.9%"},
      {"smiles": "CCCC(=O)N(C1CC(C)C(C#N)(C#N)C1(C#N)C#N)N(C)C", "note": "(stereo unspecified)", "activity change, negative = inhibition": "inactive: -4.82%"},
      {"smiles": "O=C(Nc1ccc2nc(-c3cccs3)c(-c3cccs3)nc2c1)N1CCOCC1", "Potency": "inconclusive: 11.2 µM [quencher, partial curve, poor fit]"},
      {"smiles": "COC(=O)c1ccc(NC(=O)C[n+]2ccccc2C)cc1", "activity change, negative = inhibition": "inactive: -3.01%"},
      {"smiles": "COC(=O)C1=C(C)NC(C)=C(C(=O)OC)C1c1cn(-c2ccccc2)nc1-c1ccco1", "activity change, negative = inhibition": "inactive: -2.66%"},
      {"smiles": "O=C(CN1CCCCC1)N/N=C/c1ccccc1Br", "activity change, negative = inhibition": "inactive: 4.21%"},
      {"smiles": "COc1ccc(/C=C/C(=O)OCC(=O)N2CC(=O)Nc3ccccc32)cc1S(=O)(=O)N1CCOCC1", "Potency": "inconclusive: 20 µM [quencher, side channel, partial curve]"},
      {"smiles": "CCc1ccc(CN(C(=O)c2ccco2)C2CCS(=O)(=O)C2)cc1", "note": "(stereo unspecified)", "Potency": "inconclusive: 0.708 µM [fluorescent, side channel, single point]"},
      {"smiles": "O=C(CSc1nnnn1C1CCCCC1)Nc1ccc(F)cc1", "activity change, negative = inhibition": "inactive: -12.3%"},
      {"smiles": "COc1ccc(/C=N/NC(=O)c2cccc([N+](=O)[O-])c2)cc1OC(=O)c1ccccc1", "Potency": "inconclusive: 15.8 µM [quencher, side channel, partial curve]"},
      {"smiles": "O=C(/C=C/c1ccccc1[N+](=O)[O-])Oc1ccccc1", "Potency": "inconclusive: 15.8 µM [quencher, side channel, partial curve]"},
      {"smiles": "O=C(c1ccc(Oc2ccccc2)cc1)C1CCCN(C(=O)c2cnccn2)C1", "note": "(stereo unspecified)", "activity change, negative = inhibition": "inactive: -0.414%"},
      {"smiles": "CC(/C=C/C=C/c1ccccc1)=N\\NC(=O)c1cccnc1", "Potency": "inconclusive: 25.1 µM [quencher, side channel, partial curve]"}
    ]}
  ]
}
